# In the supplement of paper PMC4166925:
# ± gives the standard deviation of the averaged measurements. Over roughly 33,000 sequences, “E-score (dimensionless, -0.5 to 0.5)” has its median near -0.046; the highest 2% begin near 0.36. This is one part of the list.
# Test system: T1, SpTbr T-box DNA-binding domain (GST fusion)
# T1 sequence: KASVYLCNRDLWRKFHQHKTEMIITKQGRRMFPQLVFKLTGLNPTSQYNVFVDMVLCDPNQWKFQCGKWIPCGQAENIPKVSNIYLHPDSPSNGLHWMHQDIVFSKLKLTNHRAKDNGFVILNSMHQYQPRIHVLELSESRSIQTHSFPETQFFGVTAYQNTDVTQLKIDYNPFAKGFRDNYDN
# Assay: PBM E-score of 8-mer (E-score (dimensionless, -0.5 to 0.5)); Tbr is Tbrain of the sea star Patiria miniata (Pm) or the sea urchin Strongylocentrotus purpuratus (Sp); higher = stronger binding preference; most listed sequences are background and not binding sites
# Details: the construct has about 5 more residues each side
# How it was run: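 Expression of GST-fused Tbr T-box DNA-binding domains, each holding the full T-box plus roughly five flanking residues, was carried out in BL21 E. coli at 20 °C, with purification by glutathione affinity chromatography. Universal Agilent arrays made double-stranded by primer extension were incubated with the protein at 200 nM in PBS (pH 7.5), then scanned and quantified. All ungapped 8-mers were scored from probe intensities, and each received an enrichment E-score from the Universal PBM Analysis Suite, averaged over duplicate arrays.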
row,Sequence,PBM E-score of 8-mer
1,TGCATCAA,-0.0456 ± 0.044
2,ATATAAAG,-0.191 ± 0.09
3,GGCGCATA,-0.175 ± 0.028
4,CAAGACCG,-0.109 ± 0.032
5,ACTGCCTC,-0.214 ± 0.05
6,CATGAGAC,-0.201 ± 0.071
7,CTCTGAAG,-0.247 ± 0.045
8,ATCATCCA,-0.0921 ± 0.058
9,TGGCCTAA,-0.198 ± 0.016
10,AACCGTCT,0.0342 ± 0.089
11,CACATCGC,0.333 ± 0.027
12,AAAACGTC,-0.038 ± 0.097
13,AAAGCCAC,-0.166 ± 0.034
14,AGGCCCGC,-0.15 ± 0.036
15,GTCAAAAC,-0.004 ± 0.043
16,GATAGTAA,-0.0634 ± 0.015
17,TATGTACA,-0.174 ± 0.083
18,CCCACTAG,-0.0652 ± 0.1
19,GTGAGCTA,0.00722 ± 0.013
20,AAGAAATC,-0.193 ± 0.04
21,CCCCGTGA,0.0419 ± 0.024
22,CGCAGGTC,0.0308 ± 0.0051
23,GAGAATAA,0.118 ± 0.0021
24,AAACTAGC,-0.155 ± 0.057
25,GGATAAAC,-0.0975 ± 0.024

row,Sequence,PBM E-score of 8-mer
1,AAAGCACA,0.0829 ± 0.029
2,GGTTACAA,0.0273 ± 0.066
3,AACGGGCG,0.16 ± 0.027
4,AATACATA,-0.00454 ± 0.11
5,AACCTGCA,-0.103 ± 0.068
6,TATAAATA,-0.167 ± 0.0029
7,GGGTTTAC,0.0179 ± 0.066
8,ATACCTAA,0.0493 ± 0.055
9,ATACGCCG,-0.0834 ± 0.026
10,AGCGAGTA,0.0903 ± 0.024
11,CTGAGACC,-0.22 ± 0.0077
12,GATCTCAA,0.0536 ± 0.028
13,ACTGGCAC,0.234 ± 0.019
14,AGTGCCAA,0.359 ± 0.0081
15,GGATGGCC,-0.231 ± 0.008
16,GCTCATGA,-0.147 ± 0.068
17,GAGGGGTA,-0.14 ± 0.082
18,AGAGCGAA,-0.0554 ± 0.085
19,CATTAGAC,-0.214 ± 0.019
20,AATGCGTC,0.0536 ± 0.068
21,CGGCTACC,-0.112 ± 0.01
22,CTGGCTCC,-0.178 ± 0.053
23,AGAGCCTC,-0.168 ± 0.0022
24,GTTCCTTA,-0.0268 ± 0.02
25,ACGGGAAG,-0.0949 ± 0.038

row,Sequence,PBM E-score of 8-mer
1,CAGAGTAA,0.0139 ± 0.072
2,CAGAGATA,-0.098 ± 0.025
3,TCATCGCA,0.264 ± 0.028
4,AGAGGCAG,-0.121 ± 0.079
5,AATAGTGA,0.0198 ± 0.057
6,AGGGAGTG,0.233 ± 0.029
7,AGCACGTG,0.241 ± 0.041
8,ACTAGCCC,-0.16 ± 0.038
9,AACTGTAT,-0.112 ± 0.043
10,CCTCATAG,-0.0788 ± 0.034
11,CCAGGAAG,-0.149 ± 0.0075
12,GCTAGTAC,0.0899 ± 0.098
13,AGGCAACT,-0.109 ± 0.049
14,TATCCTCA,0.176 ± 0.009
15,AAGGGACC,-0.0351 ± 0.055
16,AACGAAAT,0.0374 ± 0.056
17,ACAACACA,0.349 ± 0.0079
18,CAACCGAA,-0.0342 ± 0.021
19,GCGGGTAC,0.0188 ± 0.012
20,ACGGTAAG,-0.178 ± 0.082
21,AGAATGGC,0.00479 ± 0.045
22,ACAGCCAT,-0.0859 ± 0.01
23,AGTTCGAT,-0.0203 ± 0.1
24,AATGGGGG,-0.382 ± 0.027
25,AAGAAAGC,0.00357 ± 0.021

row,Sequence,PBM E-score of 8-mer
1,AACTCCGT,-0.0754 ± 0.066
2,ACAGAGAT,-0.098 ± 0.015
3,CACGCACG,0.206 ± 0.036
4,ATTGGGTG,0.204 ± 0.019
5,ATTTTGCC,-0.225 ± 0.032
6,CATCGTGG,0.0693 ± 0.016
7,ACCGTGGG,-0.107 ± 0.0042
8,TGCAGTAA,0.0597 ± 0.014
9,GTCCGGAA,-0.29 ± 0.012
10,ACTAGGCA,-0.204 ± 0.036
11,AGGTCGCA,0.273 ± 0.024
12,AGGAGGGA,-0.0901 ± 0.053
13,GTTTCAAA,-0.327 ± 0.079
14,GACACCAC,0.367 ± 0.039
15,AGATAAAT,-0.202 ± 0.017
16,ACGGCAGC,0.0417 ± 0.0037
17,CGTAGTGA,-0.0348 ± 0.0029
18,ACATACTC,-0.0738 ± 0.027
19,AATGTAGC,-0.0814 ± 0.0015
20,GTCACTCA,0.185 ± 0.047
21,CAGGCGGA,-0.224 ± 0.12
22,TAAAGAGA,-0.0999 ± 0.018
23,ACTGCGTG,0.0105 ± 0.014
24,GCAATCTA,0.0376 ± 0.013
25,GCAGCTCA,0.052 ± 0.0014

row,Sequence,PBM E-score of 8-mer
1,CAGCGATC,0.0455 ± 0.057
2,TGATAACA,0.33 ± 0.025
3,GGAACGCC,0.177 ± 0.024
4,ACGGCCTG,-0.094 ± 0.0062
5,CCACCTGA,0.148 ± 0.02
6,AACACCGC,0.299 ± 0.018
7,AAAATCAA,-0.0885 ± 0.034
8,ATCACTAC,0.0564 ± 0.0073
9,TGTCTTAA,-0.0342 ± 0.045
10,AGTTCGGA,-0.17 ± 0.042
11,ATTTGCAA,-0.0431 ± 0.044
12,CTGGTCTC,-0.133 ± 0.035
13,GAACTGAC,-0.051 ± 0.017
14,GCAACCAC,0.0127 ± 0.092
15,ACCCATTG,-0.161 ± 0.036
16,ACGTTGCC,0.144 ± 0.019
17,CCACTAAA,-0.031 ± 0.016
18,ACAACGCA,0.114 ± 0.034
19,AGTTGGAG,-0.148 ± 0.075
20,CGCCTCAG,0.342 ± 0.011
21,ATTTGATC,-0.257 ± 0.038
22,AATACCCC,-0.256 ± 0.066
23,CCTAGAAC,-0.18 ± 0.034
24,CCTATCTA,-0.225 ± 0.03
25,AAAACCAG,0.0656 ± 0.013

row,Sequence,PBM E-score of 8-mer
1,ATGGAATA,-0.0847 ± 0.081
2,ATCCGTCG,-0.0129 ± 0.041
3,TAATCCCA,-0.1983 ± 0.00057
4,GATTGGAC,-0.0797 ± 0.038
5,AGCAACAA,0.1945 ± 0.00053
6,ACGGTGAT,0.115 ± 0.028
7,CAACGCGC,0.156 ± 0.019
8,AATATCTC,-0.0127 ± 0.0054
9,ATATTGCG,0.0678 ± 0.068
10,ACTCATTA,0.0559 ± 0.0024
11,ACAGAGCA,-0.249 ± 0.025
12,GTCCTCGA,-0.0351 ± 0.064
13,AGATGCGA,0.112 ± 0.032
14,CTCCGGGA,-0.21 ± 0.0071
15,CCAAGAGA,-0.235 ± 0.06
16,CATCTGCG,-0.0623 ± 0.075
17,AGTTGAAA,-0.136 ± 0.059
18,CGTTTTGA,-0.0628 ± 0.05
19,CCGACAAG,0.115 ± 0.018
20,ATATGTGA,0.242 ± 0.055
21,CCCTCTCC,-0.0898 ± 0.048
22,CCAGTGGA,-0.133 ± 0.022
23,CTTCACAC,0.4852 ± 0.00088
24,AGGTTCAA,-0.133 ± 0.055
25,ATAGTAGG,-0.15 ± 0.033

row,Sequence,PBM E-score of 8-mer
1,TACCTAAA,-0.0995 ± 0.054
2,GGGCGGAC,-0.0766 ± 0.012
3,CTGTGCGC,-0.147 ± 0.091
4,GTTGAAAC,0.0361 ± 0.01
5,TGGCACAA,0.187 ± 0.035
6,ATAACTGA,0.0983 ± 0.016
7,GAGTAATA,-0.134 ± 0.12
8,ACATTACT,0.0205 ± 0.034
9,AGACTCTC,-0.0738 ± 0.045
10,CCATTAAC,0.142 ± 0.06
11,TCGTGGAA,0.027 ± 0.11
12,AAGAAGCC,-0.0621 ± 0.039
13,CGAGATTA,0.142 ± 0.031
14,AGTTAGGC,-0.069 ± 0.049
15,AACGTCAT,-0.103 ± 0.045
16,AGCATCAA,-0.083 ± 0.055
17,ACGTCCGG,-0.246 ± 0.021
18,GGGCTTTA,-0.244 ± 0.044
19,CACTTGTC,0.375 ± 0.012
20,ACGCTGAA,-0.105 ± 0.01
21,GTCCAACA,0.165 ± 0.011
22,CTTATGGC,-0.0704 ± 0.031
23,AAGACCGT,-0.145 ± 0.015
24,CTAGCCGA,0.0301 ± 0.045
25,GCGCCTCC,0.196 ± 0.018

row,Sequence,PBM E-score of 8-mer
1,TAACTCCA,-0.0619 ± 0.015
2,AGTCCCGA,-0.224 ± 0.0093
3,CTCGCTGC,0.0382 ± 0.037
4,ATGGGATG,-0.035 ± 0.011
5,ACCTAAGG,0.0643 ± 0.025
6,ATTTTCGC,0.223 ± 0.0094
7,CTGGCACA,0.1856 ± 0.00035
8,CAAATGAC,-0.0483 ± 0.02
9,AATAGCAC,0.316 ± 0.049
10,GCGTAGTA,-0.0459 ± 0.072
11,AACTCAAC,-0.0393 ± 0.04
12,GCCAGGCC,-0.217 ± 0.036
13,GTCATCAA,0.0423 ± 0.0043
14,AAGCGAGA,0.0545 ± 0.065
15,ACCTCGGA,0.114 ± 0.011
16,GCGGCACA,0.213 ± 0.0051
17,GACCCGGC,-0.242 ± 0.074
18,CACGTTGA,0.248 ± 0.059
19,GGTTCGGA,-0.2634 ± 0.0013
20,AGCAAACG,-0.0137 ± 0.0085
21,ATGAGCGA,0.118 ± 0.036
22,ATTTAACC,-0.172 ± 0.021
23,GTTTAGCA,0.102 ± 0.11
24,TCTACAGA,-0.171 ± 0.065
25,AACAACTA,0.176 ± 0.076

row,Sequence,PBM E-score of 8-mer
1,TCCAGCGA,-0.0842 ± 0.0072
2,CGAGGAGC,-0.0753 ± 0.036
3,GCAACTAC,-0.0321 ± 0.038
4,CACGGGCC,-0.108 ± 0.01
5,CACGACTA,0.106 ± 0.022
6,GCTAGCCA,-0.0612 ± 0.093
7,GTTACCGA,0.213 ± 0.0097
8,CTCTATGC,-0.0358 ± 0.11
9,TAGAACAA,-0.0724 ± 0.0032
10,CGCGTATA,-0.016 ± 0.053
11,CGGATTAA,-0.00536 ± 0.027
12,GTCCGAAC,-0.119 ± 0.024
13,AGGGGCAC,-0.188 ± 0.016
14,CACAAACG,0.1235 ± 0.00028
15,CCGTGGAC,0.0413 ± 0.044
16,AGTGGACA,0.0111 ± 0.012
17,CGGGATAA,0.022 ± 0.00066
18,AGTTCAGG,-0.194 ± 0.015
19,CACTAGAA,0.0999 ± 0.028
